# Laboratory results reported in PMC5892938.
# The other results are listed elsewhere or left out. At the low end of the ranking, values are background and their order means little.
# Target: GST-SBP-SLBP (stem-loop binding protein) (UniProt Q14493)
# Experiment: targeted RNA Bind-n-Seq;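 note: DESeq read counts versus GST-SBP nonspecific binding control pulldown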
# Conditions: RBNS binding buffer: 25 mM Tris pH 7.5, 150 mM KCl, 3 mM MgCl2, 0.1% Tween, 0.5 mg/mL BSA, 1 mM DTT; 27 nM protein, 750 pM RNA pool; temperature not stated; high values mean tight binding
row,Sequence,binding signal (log2 fold change)
1,GGUCACGUCUCAAUCAACUCACACGAGGGGGGGAAAACCCCUUUACCCUCACUAUCAACAGCUCGCAGUCAAG,-0.338
2,GGUCACGUCUCAAUCAACUCUAAAGAGGGGGGGAAAACCCCUUUACCCUCCACUUCAACAGCUCGCAGUCAAG,0.118
3,GGUCACGUCUCAAUCAACUCUUCUCCAGGAGUUUACUCCUGCUUUUUCAACAGCUCGCAGUCAAG,0.0701
4,GGUCACGUCUCAAUCAACUCUAUCUCAGGAGUUUUCUCCUGUUUACUCAACAGCUCGCAGUCAAG,0.08
5,GGUCACGUCUCAAUCAACUCUCUAGAGGGGGGGAAAACCCCUUUUCCCUCAAUAUCAACAGCUCGCAGUCAAG,-0.369
6,GGUCACGUCUCAAUCAACUCUUUCCCCAGGGAAAACCCUGGUUAACUCAACAGCUCGCAGUCAAG,0.163
7,GGUCACGUCUCAAUCAACUCAGUUUCCAGGGAAACCCCUGGCAUUUUCAACAGCUCGCAGUCAAG,-0.225
8,GGUCACGUCUCAAUCAACUCAACUCCCAGGGAAAACCCUGGUAUAUUCAACAGCUCGCAGUCAAG,0.0586
9,GGUCACGUCUCAAUCAACUCUACUUCAGGAGUUUACUCCUGCAUUCUCAACAGCUCGCAGUCAAG,-0.0785
10,GGUCACGUCUCAAUCAACUCAUUUCCAGGAGUUUCCUCCUGCAAUUUCAACAGCUCGCAGUCAAG,-0.0116
11,GGUCACGUCUCAAUCAACUCUAUCUCCAGGGAAACCCCUGGUAUUCUCAACAGCUCGCAGUCAAG,0.144
12,GGUCACGUCUCAAUCAACUCAUGUCCCAGGGAAAACCCUGGUUUUUUCAACAGCUCGCAGUCAAG,-0.204
13,GGUCACGUCUCAAUCAACUCUUUUUCCAGGGAAACCCCUGGCAUACUCAACAGCUCGCAGUCAAG,0.44
14,GGUCACGUCUCAAUCAACUCAUUCUCAGGAGUUUCCUCCUGUAUAUUCAACAGCUCGCAGUCAAG,-0.16
15,GGUCACGUCUCAAUCAACUCAUCCUCCAGGGAAAGCCCUGGUAAUUUCAACAGCUCGCAGUCAAG,-0.135
16,GGUCACGUCUCAAUCAACUCUUUCUCCAGGGAAAACCCUGGUAUUCUCAACAGCUCGCAGUCAAG,0.00444
17,GGUCACGUCUCAAUCAACUCCUAAGAGGGGGGGAAAACCCCUUUGCCCUCAUUCUCAACAGCUCGCAGUCAAG,0.335
18,GGUCACGUCUCAAUCAACUCACAAGAGGGGGGGAAAACCCCUUUACCCUCAAACUCAACAGCUCGCAGUCAAG,-0.666
19,GGUCACGUCUCAAUCAACUCUAGUCCCAGGGAAAGCCCUGGUUAAUUCAACAGCUCGCAGUCAAG,-0.299
20,GGUCACGUCUCAAUCAACUCAAUUCCAGGAGUUUCCUCCUGUUAACUCAACAGCUCGCAGUCAAG,-0.0629
21,GGUCACGUCUCAAUCAACUCAAUUUCCAGGGAAACCCCUGGUUUACUCAACAGCUCGCAGUCAAG,0.23
22,GGUCACGUCUCAAUCAACUCUUUCUCAGGAGUUUUCUCCUGCUAACUCAACAGCUCGCAGUCAAG,-0.0981
23,GGUCACGUCUCAAUCAACUCAAUCCCAGGAGUUUUCUCCUGCUAACUCAACAGCUCGCAGUCAAG,-0.0624
24,GGUCACGUCUCAAUCAACUCUACUUCCAGGGAAAACCCUGGCAAACUCAACAGCUCGCAGUCAAG,0.31

row,Sequence,binding signal (log2 fold change)
1,GGUCACGUCUCAAUCAACUCUUUAGAGGGGGGGAAAACCCCUUUGCCCUCCAAAUCAACAGCUCGCAGUCAAG,-0.015
2,GGUCACGUCUCAAUCAACUCCUAGGAGGGGGGGAAAACCCCUUUACCCUCACCAUCAACAGCUCGCAGUCAAG,-0.308
3,GGUCACGUCUCAAUCAACUCAUCUUCAGGAGUUUACUCCUGCAAACUCAACAGCUCGCAGUCAAG,0.0764
4,GGUCACGUCUCAAUCAACUCUUAAGAGGGGGGGAAAACCCCUUUGCCCUCAUAUUCAACAGCUCGCAGUCAAG,-0.131
5,GGUCACGUCUCAAUCAACUCUUCGUCCAGGGAAAGCCCUGGUAAUCUCAACAGCUCGCAGUCAAG,0.186
6,GGUCACGUCUCAAUCAACUCAAUAGAGGGGGGGAAAACCCCUUUGCCCUCAACUUCAACAGCUCGCAGUCAAG,-0.0539
7,GGUCACGUCUCAAUCAACUCAUUUCCAGGAGUUUACUCCUGUAGUCUCAACAGCUCGCAGUCAAG,0.104
8,GGUCACGUCUCAAUCAACUCAUCGUCCAGGGAAAGCCCUGGUAAUCUCAACAGCUCGCAGUCAAG,-0.108
9,GGUCACGUCUCAAUCAACUCUAGUCCCAGGGAAACCCCUGGUUAUUUCAACAGCUCGCAGUCAAG,0.123
10,GGUCACGUCUCAAUCAACUCUAUUCCAGGAGUUUCCUCCUGUUUAUUCAACAGCUCGCAGUCAAG,-0.206
11,GGUCACGUCUCAAUCAACUCAUCCGAGGGGGGGAAAACCCCUUUACCCUCUUUUUCAACAGCUCGCAGUCAAG,-0.0414
12,GGUCACGUCUCAAUCAACUCAUUAGAGGGGGGGAAAACCCCUUUACCCUCCGUUUCAACAGCUCGCAGUCAAG,0.204
13,GGUCACGUCUCAAUCAACUCUUCCUCCAGGGAAAUCCCUGGCAAACUCAACAGCUCGCAGUCAAG,-0.247
14,GGUCACGUCUCAAUCAACUCAUCGUCCAGGGAAACCCCUGGUAAUCUCAACAGCUCGCAGUCAAG,-0.0806
15,GGUCACGUCUCAAUCAACUCAACUUCCAGGGAAAUCCCUGGCUUAUUCAACAGCUCGCAGUCAAG,-0.0874
16,GGUCACGUCUCAAUCAACUCUUUUCCAGGAGUUUACUCCUGCAUUUUCAACAGCUCGCAGUCAAG,0.228
17,GGUCACGUCUCAAUCAACUCAUUUCCCAGGGAAAUCCCUGGCAUAUUCAACAGCUCGCAGUCAAG,-0.0728
18,GGUCACGUCUCAAUCAACUCAUUCUCCAGGGAAAACCCUGGCAUAUUCAACAGCUCGCAGUCAAG,0.114
19,GGUCACGUCUCAAUCAACUCUACGGAGGGGGGGAAAACCCCUUUACCCUCAUUAUCAACAGCUCGCAGUCAAG,-0.364
20,GGUCACGUCUCAAUCAACUCCAAAGAGGGGGGGAAAACCCCUUUACCCUCCUUAUCAACAGCUCGCAGUCAAG,0.238
21,GGUCACGUCUCAAUCAACUCAACUUCCAGGGAAAACCCUGGUUUUUUCAACAGCUCGCAGUCAAG,-0.393
22,GGUCACGUCUCAAUCAACUCACUAGAGGGGGGGAAAACCCCUUUACCCUCAUUCUCAACAGCUCGCAGUCAAG,0.0874
23,GGUCACGUCUCAAUCAACUCUCAAGAGGGGGGGAAAACCCCUUUACCCUCAUCAUCAACAGCUCGCAGUCAAG,-0.573
